This sample is rich in variants without activity.
B1: tRNA (parent)
chain: CUCUCGGUAGCCAAGUUGGUUUAAGGCGCAAGACUUUAAUUUAUCACUACGAAAUCUUGAGAUCGGGCGUUCGACUCGCCCCCGGGAGAUUUUUUCCUCGAGCAA

Variants of: B1
Assay: nonsense suppression (GFP-seq) (ratio to wild type); higher = more function; SUP4oc tRNA, yeast GFP reporter sort-seq
Outline: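 Nonsense suppression (GFPSEQ) is the median GFP/RFP ratio of each sorting bin, weighted by the variant's estimated share of cells in that bin and expressed relative to the unmutated parent tRNA. Yeast strains carried genome-integrated variants of an ochre-suppressor tRNA from a library with ~3% random mutations, plus a galactose-driven GFP ochre reporter and RFP, and were grown in raffinose/galactose medium containing 80 mg/L adenine. Cells were sorted into GFP/RFP bins, each bin was Illumina-sequenced (phred ≥30), and variants were kept only with ≥100 reads and ≥30 cells.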

| Variant | nonsense suppression |
| --- | --- |
| A31G G86A | ≤ 0.026 |
| A31G G86U | ≤ 0.026 |
| G32A A54U G59C | ≤ 0.026 |
| G32C G84A | ≤ 0.026 |
| A31G U35G G88U | ≤ 0.026 |
| G32A C83A | ≤ 0.026 |
| A31U U57G C64U G69C G85C | ≤ 0.026 |
| A31G C72A G73A | ≤ 0.026 |
| A31G G65A G88U | ≤ 0.026 |
| A31U A60C G61A U63G G85C | ≤ 0.026 |
| G32A U57G G73A | ≤ 0.026 |
| G32C G88A | ≤ 0.026 |
| A31U G66C G78C | ≤ 0.026 |
| A31G C34U C82U | ≤ 0.026 |
| G32C C79U G88U | ≤ 0.026 |
| A31U U63A | 0.0391 |
| A31U U63G | 0.0763 |
| G32A G65A C81G | ≤ 0.026 |
| G32C A62U G65C C80A G88A | ≤ 0.026 |
| G32A U57C | ≤ 0.026 |
| A31G G67C C68G | ≤ 0.026 |
| G32C G69A C77G G78A | ≤ 0.026 |
| A31G C81A G86U | ≤ 0.026 |
| A31U G85C | ≤ 0.026 |

| Variant | nonsense suppression |
| --- | --- |
| A31G G32C G88U | ≤ 0.026 |
| G32A U57C U58C C68G | ≤ 0.026 |
| G32A G61A G69U | ≤ 0.026 |
| A31U C77G | ≤ 0.026 |
| G32C A62G C82A | ≤ 0.026 |
| A31U U55G | ≤ 0.026 |
| G32C U55A G61C A89C | ≤ 0.026 |
| A31U A62C C68G | ≤ 0.026 |
| G32A A62U C83A | ≤ 0.026 |
| A31G G67U U76G C81A | ≤ 0.026 |
| A31U C72G | ≤ 0.026 |
| A31G U70A | ≤ 0.026 |
| A31U U63G G66U | ≤ 0.026 |
| A31U C80A | ≤ 0.026 |
| A31U C80G | ≤ 0.026 |
| A31U U63G G65A G69A C75A | ≤ 0.026 |
| A31G U71G | ≤ 0.026 |
| A31G G73A | 0.366 |
| G32A A60U | ≤ 0.026 |
| G32U A60G | ≤ 0.026 |
| G32C U55G C77G C79A | ≤ 0.026 |
| A31G C34U G69U | ≤ 0.026 |
| A31U G67C | ≤ 0.026 |
| G32A G61C G67U C72G | ≤ 0.026 |

| Variant | nonsense suppression |
| --- | --- |
| A31G G61A G78U C83U | ≤ 0.026 |
| G32A C56A G78A G85U | ≤ 0.026 |
| A31U C64U C72U | ≤ 0.026 |
| A31U C56A U70C A89G | ≤ 0.026 |
| A31U G66U | ≤ 0.026 |
| G32C U55A C83U | ≤ 0.026 |
| G32U A33G | ≤ 0.026 |
| G32A U70A C72A | ≤ 0.026 |
| G32A A60U C77G | ≤ 0.026 |
| G32C U63A C83U A89C | ≤ 0.026 |
| G32A A74C | ≤ 0.026 |
| A31G C56U A60U G69U | ≤ 0.026 |
| G32C U63C C81A | ≤ 0.026 |
| A31U U71A | ≤ 0.026 |
| G32C C72U | ≤ 0.026 |
| A31U U55G G67C | ≤ 0.026 |
| A31G G67U U76G | ≤ 0.026 |
| G32U A54U C64U U76C | ≤ 0.026 |
| A31U C68U U70A G85U | ≤ 0.026 |
| A31U A60C C72U U76C C79G | ≤ 0.026 |
| A31U U58G A62U G65U A74U | ≤ 0.026 |
| G32C C56A A87U | ≤ 0.026 |
| A31G G69C G84C A87C | ≤ 0.026 |
| G32C A54G G86A | ≤ 0.026 |

| Variant | nonsense suppression |
| --- | --- |
| A31G C56G G88A | ≤ 0.026 |
| A31U C56U C83G | ≤ 0.026 |
| A31U C75A | 0.758 |
| G32C C77A G85U | ≤ 0.026 |
| G32C A60G | ≤ 0.026 |
| A31G G67C G85A | ≤ 0.026 |
| A31U C64U U76C | ≤ 0.026 |
| G32A G59C C75A | ≤ 0.026 |
| A31G G67C U76A | ≤ 0.026 |
| A31U G69A | ≤ 0.026 |
| A31G G88U | ≤ 0.026 |
| A31U C81U | 0.0322 |
| G32A U35A G59U G73A G85C | ≤ 0.026 |
| A31U U58G G86A | ≤ 0.026 |
| G32A U63A | ≤ 0.026 |
| G32A G78C | ≤ 0.026 |
| G32A U71G | ≤ 0.026 |
| A31G C80G G85U | ≤ 0.026 |
| A31G U57C G78A G86A | ≤ 0.026 |
| A31G G65C | ≤ 0.026 |
| A31U C34G U71A | ≤ 0.026 |
| G32A A54U | ≤ 0.026 |
| A31U G88C | ≤ 0.026 |
| A31U C56A | ≤ 0.026 |

| Variant | nonsense suppression |
| --- | --- |
| A31G C72G | ≤ 0.026 |
| G32C C34A A62U G69C G88A | ≤ 0.026 |
| A31G G69U | ≤ 0.026 |
| A31G G69A | ≤ 0.026 |
| A31U G59A | ≤ 0.026 |
| A31U C68A | ≤ 0.026 |
| A31U C68U | ≤ 0.026 |
| G32A A33G G86C | ≤ 0.026 |
| G32C A60G G65C | ≤ 0.026 |
| A31G G61A G67U | ≤ 0.026 |
| A31U A60C C75A | 0.184 |
| A31G G61U U76A | ≤ 0.026 |
| A31U G65C C72G U76G | ≤ 0.026 |
| A31G G32C A54C | ≤ 0.026 |
| A31U A33G | ≤ 0.026 |
| G32U A33G U55C C79U | ≤ 0.026 |
| A31U U70A U71A | ≤ 0.026 |
| A31G U63C C72A | ≤ 0.026 |
| A31U C34G U57A A62G | ≤ 0.026 |
| A31U G73C | ≤ 0.026 |
| G32A C64G | ≤ 0.026 |
| A31U U55A G85C | ≤ 0.026 |
| G32A U57A G61U | ≤ 0.026 |
| A31G G32C | ≤ 0.026 |

| Variant | nonsense suppression |
| --- | --- |
| A31G G32A | ≤ 0.026 |
| A31U G73A C79G | ≤ 0.026 |
| A31G G66A U70G G73C | ≤ 0.026 |
| A31U A54C U57C | ≤ 0.026 |
| A31U G65A G69A C75G G84U | ≤ 0.026 |
| A31G C75U | 1.05 |
| G32C A89U | ≤ 0.026 |
| G32C U76A G85C | ≤ 0.026 |
| A31G C68G | ≤ 0.026 |
| G32C C56A A60G C83U G85C | ≤ 0.026 |
| G32C G65A | ≤ 0.026 |
| G32C G65C | ≤ 0.026 |
| A31G C56A | ≤ 0.026 |
| G32A U70C | ≤ 0.026 |
| A31G G84A | ≤ 0.026 |
| G32A C77A | ≤ 0.026 |
| G32C G86A | ≤ 0.026 |
| A31G U58G C64U C68G | ≤ 0.026 |
| A31U C34U U76C | ≤ 0.026 |
| A31U U58C U63A G73A | ≤ 0.026 |
| G32C A74G | ≤ 0.026 |
| G32C U76A | ≤ 0.026 |
| G32C C34U | ≤ 0.026 |
| G32C U58C G59A | ≤ 0.026 |

| Variant | nonsense suppression |
| --- | --- |
| G32A U76C C82G | ≤ 0.026 |
| A31U U63A G85C A89C | ≤ 0.026 |
| A31G C83U | 0.0743 |
| A31G U57A | 0.136 |
| G32C G66A | ≤ 0.026 |
| A31U U70A | ≤ 0.026 |
| G32C C75A G86U | ≤ 0.026 |
| A31U G84C | ≤ 0.026 |
| A31U G84A | ≤ 0.026 |
| A31U G32C G85U | ≤ 0.026 |
| G32A G61C C81U C82A | ≤ 0.026 |
| G32C C34G U35C | ≤ 0.026 |
| A31G U63G G66A C82A | ≤ 0.026 |
| A31G C34U A60G C79A C80G | ≤ 0.026 |
| A31G G78U | ≤ 0.026 |
| A31G G78C | ≤ 0.026 |
| A31G U35G U70G | ≤ 0.026 |
| A31U U58G G69A | ≤ 0.026 |
| G32C U70C U71G | ≤ 0.026 |
| A31G C77U | ≤ 0.026 |
| G32A U35A U57A | ≤ 0.026 |
| A31U G78U C80A | ≤ 0.026 |
| G32C A60C C82U | ≤ 0.026 |

— the RNAGym collection of RNA variant scans (doi:10.1101/gad.245936.114)
